According to publication PMC4336329 (PLoS ONE, 2015):
Among all 310,000 compounds or so, about 14,000 (4.5%) showed an effect of 50% or more. The effect is printed as a negative number. The list shows a part of the results.

target: human ether-à-go-go-related gene (hERG) potassium channel (human, UniProt Q12809); assay: primary screen, population patch clamp on CHO cells stably expressing hERG
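Further: peak tail current of the secondary pulse compared with the same well before compound.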

Sequence of human ether-à-go-go-related gene (hERG) potassium channel (Q12809 whole entry, looked up): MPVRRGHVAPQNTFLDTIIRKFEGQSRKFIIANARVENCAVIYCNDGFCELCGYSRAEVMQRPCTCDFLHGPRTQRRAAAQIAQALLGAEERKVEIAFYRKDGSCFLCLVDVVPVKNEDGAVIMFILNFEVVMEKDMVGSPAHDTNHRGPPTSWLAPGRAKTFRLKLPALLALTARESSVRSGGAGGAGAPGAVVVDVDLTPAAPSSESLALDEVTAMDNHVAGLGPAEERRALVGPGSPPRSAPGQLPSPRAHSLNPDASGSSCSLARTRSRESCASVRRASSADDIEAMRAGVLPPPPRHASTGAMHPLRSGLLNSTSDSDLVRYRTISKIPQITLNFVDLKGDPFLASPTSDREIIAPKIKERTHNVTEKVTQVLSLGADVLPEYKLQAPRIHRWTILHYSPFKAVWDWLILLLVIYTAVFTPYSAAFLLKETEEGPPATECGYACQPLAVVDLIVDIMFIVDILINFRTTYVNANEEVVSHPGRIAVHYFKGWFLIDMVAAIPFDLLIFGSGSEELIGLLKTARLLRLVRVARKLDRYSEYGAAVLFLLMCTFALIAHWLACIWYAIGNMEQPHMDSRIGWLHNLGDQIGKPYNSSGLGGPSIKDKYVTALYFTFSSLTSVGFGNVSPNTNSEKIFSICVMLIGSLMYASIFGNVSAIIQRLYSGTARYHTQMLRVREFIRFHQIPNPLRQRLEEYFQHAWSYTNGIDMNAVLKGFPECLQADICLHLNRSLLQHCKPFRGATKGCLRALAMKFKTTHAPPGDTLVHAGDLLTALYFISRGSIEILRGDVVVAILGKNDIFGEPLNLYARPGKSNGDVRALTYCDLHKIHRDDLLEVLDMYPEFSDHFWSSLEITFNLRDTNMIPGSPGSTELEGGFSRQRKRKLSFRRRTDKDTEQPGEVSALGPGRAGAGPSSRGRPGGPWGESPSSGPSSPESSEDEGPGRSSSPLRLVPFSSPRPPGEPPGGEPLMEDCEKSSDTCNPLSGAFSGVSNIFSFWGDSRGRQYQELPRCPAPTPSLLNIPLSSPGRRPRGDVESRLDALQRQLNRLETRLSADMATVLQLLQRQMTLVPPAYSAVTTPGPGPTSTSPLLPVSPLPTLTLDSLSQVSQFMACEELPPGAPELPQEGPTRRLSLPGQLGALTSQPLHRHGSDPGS

SMILES	hERG current change (%, negative = inhibition) at 10uM [%]
O=C(NCC(=O)N1CCN(C(=O)c2ccco2)CC1)c1ccccc1	-7.74
CC(=O)c1c(N2CCOCC2)nc2ccc(Br)cc2c1-c1ccccc1	5.9
O=C1/C(=C/c2cccnc2)CC/C1=C\c1cccnc1	-24.5
NC(=O)c1ccccc1NCC(=O)c1ccc(Cl)cc1	16.4
Cn1c(SCC(=O)NNC(=S)Nc2ccccc2)nnc1-c1ccncc1	12.3
CC1CC(C)CN(C(=O)COC(=O)CNS(=O)(=O)/C=C/c2ccccc2)C1 (stereo not drawn)	-13
Cc1ccc(C2CC(c3ccco3)n3nc(N)nc3N2)cc1 (stereo not drawn)	-19.2
Cc1ccc(C(=O)OCC(=O)Nc2ccccc2Sc2ccccc2)cc1C	6.41
CCOc1ccc(/C(O)=C/C(=O)C(=O)Nc2ccc(S(=O)(=O)NC(C)=O)cc2)cc1	16.9
CN1C(=O)C(=O)/C(=C(/O)c2ccc(Br)cc2)C1c1ccccc1F (stereo not drawn)	8.71
C(#CCN1CCOCC1)COC(c1ccccc1)c1ccccc1.Cl	8.73
C[C@H](NC(=O)N1CCn2c1nc1ccccc12)C(=O)NCc1ccco1	-10.6
CCOC(=O)c1csc(NC(=O)C2CCCCC2)n1	-0.161
Cc1ccc(C(=O)NC2CCc3ccccc3C2=O)cc1 (stereo not drawn)	-8.68
CCOc1ncccc1C(=O)OCC(=O)c1cc(OC)ccc1OC	-37.5
O=C(NCCCn1ccnc1)c1cn(-c2ccccc2)nc1-c1ccc(F)cc1	-64
CCOC(=O)COc1cc(-n2c(=S)[nH]c3ccccc3c2=O)c(Cl)cc1Cl	-3.27
C/C(N=Nc1nc2ccccc2s1)=N\Nc1ccccc1O	9.5
Cc1cccc(C(=O)NCCN2CCCC2)c1.Cl	-0.337
O=C(CCc1nnc(CCCCc2ccccc2)o1)NCc1cc(F)ccc1F	-33.9
C=CCc1cccc2cc(C(=O)Nc3ccc(CC(=O)O)cc3)c(=O)oc12	8.33
COc1ccc(/C=C2\SC(=NCc3ccccc3)NC2=O)cc1	-3.64

SMILES	hERG current change (%, negative = inhibition) at 10uM [%]
Cc1ccc(S(=O)(=O)NC2CC(C)(C)NC(C)(C)C2)c(C)c1C	3.07
CN(CC(=O)NCCCN1CCOCC1)S(=O)(=O)c1ccc(Br)cc1	-18.9
Oc1[nH]c2ccccc2c1N=Nc1cccc(Cl)c1	16.5
CC1(C)C(=O)N(c2ccccc2)C(=O)c2ccccc21	9.68
O=C(CSc1ccc(-c2ccco2)nn1)Nc1ccccc1	-47.6
Cc1cccc(NC(=O)Nc2cc(C)cc(C)n2)c1	11.7
Cc1cc(C(=O)COc2ccc(Br)cc2F)c(C)n1C1CC1	-9.63
COc1cc(NC(=O)Nc2cccc3cccnc23)cc(OC)c1OC	-1.6
CCOC(=O)N1CCN(C(=O)Cn2ccc3ccccc3c2=O)CC1	-2.48
O=c1cc(NS(=O)(=O)c2ccccc2)nc(SCc2ccc(Cl)cc2)[nH]1	1.17
CCC(c1nnnn1CCc1ccccc1)N(Cc1ccco1)Cc1cc2cc(C)cc(C)c2[nH]c1=O (stereo not drawn)	2.79
CCOc1ccc(NC(=S)N(CCc2c(C)[nH]c3ccccc23)Cc2ccco2)cc1	2.6
Clc1ccc(-c2nnc3sc(Cc4cccs4)nn23)c(Cl)c1	-55.7
COc1ccc(C(=O)CCC(=O)O)c(C)c1	6.08
O=C(CCCN1C(=O)c2ccccc2C1=O)NCCCn1ccnc1	13.4
Cc1ccccc1NC(=O)CSc1nnc(Cc2ccccc2)o1	-12.6
O=C(NCc1cccnc1)C(=O)NCC1OCCN1S(=O)(=O)c1ccc(F)cc1 (stereo not drawn)	6.16
O=C(CS(=O)(=O)c1cn(Cc2ccc(F)cc2)c2ccccc12)N1CCCCC1	-0.405
Cc1cc(C(=O)NNC(=S)NC(C)c2ccccc2)c2ccccc2n1 (stereo not drawn)	14.6
CSc1nnc2c(n1)OC=Nc1ccc(Br)cc1-2	-11.7
CNCc1ccccc1Sc1ccc(OC)cc1.Cl	-30.4
CCN(CC)CCOC(=O)c1ccc(NC(=O)CCCN2C(=O)S/C(=C/c3ccc(OC)cc3)C2=S)cc1	29.5

SMILES	hERG current change (%, negative = inhibition) at 10uM [%]
O=S(=O)(c1cccc2nsnc12)N1CCN(c2ccccc2F)CC1	13.5
O=C(Nc1ccc(OC(F)F)c(Cl)c1)C(c1ccccc1)c1ccccc1	14.9
O=C(Nc1ccc(S(=O)(=O)N2CCCCC2c2cccnc2)cc1)c1ccccc1F (stereo not drawn)	0.959
CC(OC(=O)C1CCCCC1)C(=O)Nc1cccc(Cl)c1 (stereo not drawn)	-14.7
COc1ccccc1-n1nnnc1SCC(=O)Nc1ccccn1	-4.3
Cc1ccc(C)c(OCCC(=O)OCC(=O)N(C)c2c(N)n(Cc3ccccc3)c(=O)[nH]c2=O)c1	-10.2
COc1ccc(CCNC(=O)COc2ccc(S(=O)(=O)NCC(C)C)cc2Cl)cc1OC	-8.83
COc1ccc(NC(=O)Nc2c(C)n(-c3ccccc3)c(=O)n2C)cc1OC	0.0287
O=C(NCC1CC1)c1ccc(Oc2cc(Cl)cc(Cl)c2)o1	-33.7
CCOP(=O)(OCC)C(Nc1cccc([N+](=O)[O-])c1)c1ccc(N(C)C)cc1 (stereo not drawn)	-7.39
COc1ccc(CCNC(=O)Cn2c(=O)oc3ccccc32)cc1OC	-1.88
Cc1c(C(=O)N2CCCC2)c(S(=O)(=O)NCC(C)c2ccccc2)c(C)n1C (stereo not drawn)	12.7
Cc1nn(-c2ccccc2)c2[nH]c(=O)c(CNc3ccc4c(c3)OCCO4)cc12	-3.56
O=C(CN1C(=O)COc2ccccc21)N(Cc1cccnc1)Cc1ccccc1F	-26.6
COc1ccc(/C(C)=N\Nc2nc(-c3ccccc3)cc(=O)[nH]2)cc1	12.7
COC(=O)c1ccc(C)c(N(CCO)CCO)c1	-9.7
C=CCn1cnc2c(NCc3ccccc3)ncnc21	7.58
CC(C)N1C(=O)C2C(C(=O)NCc3ccccc3)C3C=CC2(O3)C1C(=O)NC(C)(C)C (stereo not drawn)	12.3
O=C1COc2cccnc2N1	5.96
Cc1cc2c(cc1S(=O)(=O)NCc1ccc(Cl)cc1)OCC(=O)N2	-57.9
Cc1ccccc1OCCNC(=O)/C=C/c1ccccc1	-8.42
COc1ccc(C(=O)Cc2cc(OC)c(OC)cc2[N+](=O)[O-])c(OC)c1	11.1

SMILES	hERG current change (%, negative = inhibition) at 10uM [%]
COc1ccc(C2c3[nH]c4ccccc4c3CCN2C(=O)c2ccccc2C(C)=O)c(F)c1 (stereo not drawn)	15.9
Cc1ccc(NC(=O)C(C)N2CCc3ccccc3C2)cc1 (stereo not drawn)	-16.4
CC(C)(C)c1ccc(N2C(=N)SCC2=O)cc1	-0.538
Cc1nc2ccccc2c(=O)n1-c1ccc(Br)cc1[N+](=O)[O-]	4.41
COc1ccc(OC(=O)Nc2ccc([N+](=O)[O-])cc2OC)cc1	12.8
O=c1c2ccccc2nc(-c2ccc(-c3ccccc3)cc2)n1-c1ccncc1	-42.9
CCN(CC)CCN1C(=O)C2C(C(=O)Nc3cccc(SC)c3)C3C=CC2(O3)C1C(=O)NC1CCCC(C)C1C (stereo not drawn)	-49.7
CC(=O)Nc1ccc(S(=O)(=O)N2c3ccc(F)cc3CCC2C)cc1 (stereo not drawn)	-18.4
O=C1CC2(CCCCCC2)Oc2ccccc21	-6.74
CCC(C)[C@H](NC(=O)[C@@H]1CSC2c3ccccc3C(=O)N21)C(=O)N1CCCCC1 (stereo partly drawn)	2.86
O=C(O)CC12CC3CC(C1)CC(n1ncc(NCc4ccccc4)c(Cl)c1=O)(C3)C2	13.4
Cn1c(SCC(=O)Nc2ccc(N3CCOCC3)c(Cl)c2)nnc1-c1ccccc1	2.49
Cc1cc(Oc2ccc(=O)n(C)n2)nc(SCc2ccccc2)n1	25.7
COc1ccc(CN2CCC(C(=O)Nc3ccc(Oc4ccccc4)nc3)CC2)cc1F	-71.6
Cc1cnc(NC(=O)CCCc2nc3ccccc3s2)s1	-6.98
COc1ccc(CCN2CCCn3c2nc2c3c(=O)n(CC(N)=O)c(=O)n2C)cc1OC	20.8
COC(=O)c1ccc(Cl)cc1NC(=O)/C=C/c1ccc(C)o1	5.78
COC(=O)c1[nH]c2ccc(C)cc2c1NC(=O)CN1CCN(C(=O)c2ccccc2)CC1.Cl	-52.1
NS(=O)(=O)c1ccc(CCNC(=O)C(=O)Nc2cc3c4c(c2)CC(=O)N4CCC3)cc1	-1.21
COC(=O)c1ccc(C)c(NC(=O)Cn2cnc3ccccc3c2=O)c1	-8.34
Cn1c(SCC(=O)Nc2nccs2)nnc1-c1ccco1	-5.22
